# According to PubChem BioAssay AID686971 (National Center for Advancing Translational Sciences (NCATS), 2013):
# In all, about 360,000 compounds went through this assay and about 7,500 (2.1%) were called active. The inconclusive results got no clear call from the source; some entries with a clear call stand among them for comparison. Calls follow the shape of the dose curve; as a rule, active = well fitted cell-killing curve with a large enough effect; inconclusive = small, poorly fitted or top-dose-only effect, or effect the other way, or another doubt; inactive = no such curve, though single readings can be large or run the other way. Potencies of inconclusive entries are left out as doubtful fits.
# Experiment: qHTS for induction of synthetic lethality in tumor cells producing 2HG: qHTS for the HT-1080-IDH1KD cell line;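 as to activity, negative = toxicity: 0% = DMSO wells and -100% = cell-free medium wells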
# Conditions: HT-1080 IDH1 knockdown viability, ATP luminescence, 48 h; activity, negative = toxicity: at 46.1 µM (top of the series) unless noted
# How it was run: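 Knockdown cells (IDH1KD HT-1080) received compounds 2 h after plating at 750 cells/well and were kept 48 h at 37 °C in 5% FBS RPMI. A CellTiter-Glo luminescence read gave % activity for curve fitting.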
# Potency is read from the fitted curve at half-maximal effect; tags tell the direction and shape of the fitted curve.
Compound,Potency,"activity, negative = toxicity"
Cc1ccc(N/N=C(\C#N)C(=O)c2ccsc2)cc1,"inconclusive [cytotoxic, single point]",
CN(Cc1ccccc1)C(=O)c1[nH]cnc1C(=O)N[C@@H](Cc1ccccc1)C(=O)OC(C)(C)C,,inactive: 6.26%
Cc1cccc(N2CCN(C(=O)CCC(=O)N3Cc4ccccc4Oc4ncccc43)CC2)c1C,"inconclusive [cytotoxic, single point]",
O=C1/C(=C\c2ccco2)SC(=S)N1C1CCS(=O)(=O)C1 (centres undefined),"inconclusive [cytotoxic, single point]",
C[C@H]1CN([C@@H](C)CO)S(=O)(=O)c2ccc(Br)cc2O[C@@H]1CN(C)S(=O)(=O)c1ccccc1F,,inactive: 1.63%
CCCCCCC(=O)N(O)C1CC(=O)N(c2ccc(Br)cc2)C1=O (centres undefined),active: 15.8 µM,
CSc1ccc(CN2CCC2(C)C(=O)NCc2cccc(C(F)(F)F)c2)cc1 (centres undefined),"inconclusive [cytotoxic, single point]",
CCc1cccc(OCC(=O)Nc2cc(S(=O)(=O)N3CCOCC3)ccc2N2CCCC2)c1,,inactive: 6.48%
COc1ccccc1-n1cn[nH]c1=S,"inconclusive [cytotoxic, single point]",
CN(C)N=Nc1nc2c(c(=O)n(C)c(=O)n2C)n1CC1CO1 (centres undefined),"inconclusive [cytotoxic, partial curve]",
CCc1ncn(CCc2ccccc2OC)c1C(C)C,"inconclusive [cytotoxic, single point]",
Cc1c(Cl)cccc1NC(=S)NCC1COc2ccccc2O1 (centres undefined),,inactive: -17.9%
O=C(O)c1ccc(N/N=C/c2ccc(-c3ccc(Br)cc3)o2)cc1,active: 23.1 µM,
Cc1ccc(S(=O)(=O)N2C[C@H]3C(=O)C[C@@H](c4ccccc4)N(S(C)(=O)=O)[C@H]3C[C@H]2c2ccccc2)cc1,"inconclusive [cytotoxic, partial curve]",
Cn1cnnc1Sc1ccc(C(=O)OCC(=O)Nc2ccccc2)cc1[N+](=O)[O-],,inactive: -0.383%
CCN(CC(=O)Nc1ccc(NC(C)=O)cc1)C(=O)/C=C/c1ccc(S(=O)(=O)N2CCCCCC2)cc1,"inconclusive [cytotoxic, single point]",
OC[C@@H]1CN(Cc2cccs2)C[C@H](n2cnc3c(N4CCN(c5ccccc5)CC4)ncnc32)O1,"inconclusive [cytotoxic, single point]",
C[C@]12CC[C@H]3C(=CCc4cc(O)ccc43)[C@@H]1CCC2=O,,inactive: -21.1%
CC1(C)COC(/C=C/c2ccc([N+](=O)[O-])cc2)=N1,active: 23.1 µM,
Cn1nc(C(=O)OCC(=O)NC2CCS(=O)(=O)C2)c2ccccc2c1=O (centres undefined),,inactive: 6.27%
Cn1cc(CN2CCCC(C(=O)Nc3cccc(-c4cc5ccccc5[nH]4)c3)C2)cn1 (centres undefined),active: 29.1 µM,
Cc1ccc(NC(=O)c2cccs2)cc1NC(=O)c1ccc(F)cc1,"inconclusive [cytotoxic, partial curve]",
CCCCN(CC)CCNC(=O)c1cc2c(-c3ccccc3F)nn(C)c2s1,"inconclusive [cytotoxic, single point]",

Compound,Potency,"activity, negative = toxicity"
CCOCCOC(=O)c1[nH]c2c(c1C)C(=O)CC(c1ccccc1)C2 (centres undefined),active: 0.259 µM,
CCOC(=O)C1=C(C)N(c2ccc(OCC)cc2)C(=O)/C1=C\c1ccco1,"inconclusive [cytotoxic, single point]",
COc1cccc(OCC(O)CN2CCN(c3ccccn3)CC2)c1 (centres undefined),,inactive: 0.455%
c1ccc(COc2ncnc3c2ncn3CCCN2CCN(Cc3cccc4ccccc34)CC2)cc1,"inconclusive [cytotoxic, single point]",
CC12CCC(=O)N1C(C(=O)NCc1ccc(Cl)cc1Cl)CS2 (centres undefined),,inactive: 2.35%
O=Cc1s/c(=N\S(=O)(=O)c2ccccc2)n(CCCCl)c1Cl,active: 7.31 µM,
COc1ccc(-c2nc(-c3ccccn3)ncc2S(C)(=O)=O)cc1,,inactive: 22.3%
CCC(C)c1ccc(NC(=O)NCCN2CCCCC2)cc1 (centres undefined),"inconclusive [cytotoxic, single point]",
Oc1ccc(Cc2ccccc2)c2cccnc12,"inconclusive [cytotoxic, full curve]",
O=[N+]([O-])c1ccc(N=Cc2c(O)ccc3ccccc23)cc1,active: 9.2 µM,
COc1ccc(Br)cc1/C=N/NC(=O)c1cc(OC)c(OC)c(OC)c1,active: 16.4 µM,
CC(=O)Nc1c(-c2ccccc2)nc2ccc(Cl)cn12,,inactive: 10.7%
CSCCC(NC(=O)CCC(=O)OCC(=O)[C@@]1(O)CCC2[C@@H]3CCC4=CC(=O)C=C[C@]4(C)C3[C@@H](O)C[C@@]21C)C(=O)O (some centres undefined),"inconclusive [rising, full curve, poor fit]",
Cc1ccc(-c2cccc(CN3CCN(C4CCN(C(C)C)CC4)C(CCO)C3)c2)o1 (centres undefined),"inconclusive [cytotoxic, single point]",
Cc1ccc(NC(=O)c2cnc3ccccc3n2)cc1C,"inconclusive [rising, partial curve, poor fit]",
COc1ccc(C(=O)/C=C/c2ccc(O)cc2)c(O)c1C/C=C(\C)CCC=C(C)C,"inconclusive [cytotoxic, single point]",
COc1ccc(NC(=O)c2cc(-c3cc(F)ccc3OCC3CCCO3)n[nH]2)cc1OC (centres undefined),"inconclusive [cytotoxic, single point]",
COC(=O)c1ccc(NC(=S)NC2c3ccccc3CC2O)cc1 (centres undefined),,inactive: -2.11%
CC1=C(C(=O)N(C)C)CC(CC(=O)NCc2cccc3ccccc23)C(=O)N1Cc1ccc(C(C)(C)C)cc1 (centres undefined),"inconclusive [cytotoxic, single point]",
Cc1cc(OCC(=O)OCC(=O)N(C)C2CCS(=O)(=O)C2)ccc1Cl (centres undefined),,inactive: 7.33%
C=CCn1cc(/C=N/Nc2nc3ccccc3[nH]2)c2ccccc21,active: 16.4 µM,
O=S(=O)(c1ccccc1F)N1CCC(Oc2ccc(-n3cnnn3)cc2)CC1,"inconclusive [cytotoxic, single point]",
COc1ccc(NC(=O)N(C)C[C@H]2Oc3c(NC(=O)Nc4ccc(C(F)(F)F)cc4)cccc3C(=O)N([C@H](C)CO)C[C@@H]2C)cc1,"inconclusive [cytotoxic, single point]",

Compound,Potency,"activity, negative = toxicity"
CN1CCN(C(=O)c2cc(COc3ccc(F)cc3Cl)on2)CC1c1ccccc1 (centres undefined),"inconclusive [cytotoxic, partial curve]",
CCOC(=O)CNC(=O)CSc1ncnc2c1cnn2-c1ccccc1,"inconclusive [cytotoxic, single point]",
CCC1=C(OC(=O)N(CC)CC)N2C(=O)OC(=NCCc3c[nH]c4ccccc34)[C@]2(Cc2ccccc2)[C@H]2C1=CC[C@H]1C(=O)NC(=O)[C@H]12,"inconclusive [cytotoxic, single point]",
O=C(NCCN1CCN(C(=O)c2ccc(Br)cc2)CC1)c1ccc(Br)cc1,"inconclusive [cytotoxic, single point]",
O=C(NC(c1ccc(F)cc1)c1ccc2ccccc2n1)C1CCN(CCOc2ccc(Cl)cc2)CC1 (centres undefined),active: 20.6 µM,
Cc1cc(N/N=C\c2ccccc2)nc(-c2ccccc2O)n1,"inconclusive [cytotoxic, single point]",
O=S(=O)(Nc1ccccc1)c1ccc(-c2cnc(C3CC3)o2)cc1,"inconclusive [cytotoxic, partial curve]",
COc1ccc(-c2nc(-c3ccccn3)no2)cc1,active: 9.2 µM,
COc1cccc(NC(=O)c2cc(-c3ccco3)nc3ccccc23)c1,,inactive: -1.48%
O=S(=O)(c1cccc(Cl)c1Cl)N1CCN(C(=S)NCCCN2CCOCC2)CC1,"inconclusive [cytotoxic, single point]",
Cc1nc(-c2ccc(S(=O)(=O)N3CCCN(CCc4ccccc4)CC3)s2)cs1,"inconclusive [cytotoxic, single point]",
COc1ccc(-c2[nH]ncc2N=Nc2cc(C)cc(C)c2)cc1,active: 20.6 µM,
CCOc1ccccc1C(=O)N[C@H](C(=O)OCc1csc(CC(=O)Nc2ccc(C)cc2)n1)C(C)C,"inconclusive [cytotoxic, partial curve]",
CCn1c(=O)c2cc(C(=O)N(C)c3ccc(OC)cc3OC)sc2c2ccccc21,,inconclusive: -30.8% [cytotoxic]
Nc1nonc1N/N=C/c1c(O)ccc2ccccc12,"inconclusive [cytotoxic, single point]",
CC(=O)Nc1ccc(NC(=O)C(C)Sc2n[nH]c(=O)n2Cc2ccccc2)cc1 (centres undefined),,inactive: 2%
CC(C)C[C@H]1CN(CCCC[C@@H]2CNC(=O)C(=O)N2CCc2ccccc2)C(=O)C(=O)N1Cc1ccccc1,"inconclusive [cytotoxic, single point]",
CCOC(=O)[C@]12CCCC=C1N(Cc1ccc3c(c1)OCO3)C(=O)[C@H](CC(=O)NCc1cccs1)C2,"inconclusive [cytotoxic, single point]",
Cc1ccc(C(C)C)cc1S(=O)(=O)NCc1ccccn1,,inactive: 8.64%
O=C(N/N=C/c1ccc(O)cc1O)/C(=C/c1ccccc1)CCO,"inconclusive [cytotoxic, partial curve]",
Cc1ccc(Nc2nc(-c3sc(C)nc3C)cs2)cc1,active: 1.84 µM,
Cc1cc(C)n2nc(-c3ccc(F)cc3)nc2n1,,inactive: -5.91%
CSc1ccc(NC(=O)N2CCN(c3nc4ccccc4s3)CC2)cc1,,inactive: -4.97%
